Among all 110,000 compounds or so, about 40 (0.04%) were called active. The shares of active, inactive and inconclusive entries below differ from those in the screen. Calls come from the whole dose curve; as a rule, active = well fitted curve in the direction sought with a large enough effect in the signal ratio (not every such curve was filed as active); inconclusive = small, poorly fitted or top-dose-only effect, or a change in a side signal; inactive = flat fitted curve, though single readings scatter; the % refers to the signal ratio. Potencies of inconclusive entries are doubtful fits and often do not repeat.
Assay: IkB Signaling;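 for IkBa stabilization activation: 0% = basal untreated cells and 100% = reference inhibitor full response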
Conditions: ABC-DLBCL IkBa-CBG/CBR dual luciferase ratio (green luciferase fused to IkBa over red control in OCI-Ly3 lymphoma cells), 4 h; IkBa stabilization activation: at 57.1 µM (top of the series), scaled: untreated 0%, proteasome inhibitor 100% unless noted
In short: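 In this assay, an IκBα–CBG68 fusion accumulates when IKK-driven degradation is blocked; native CBR normalizes for cell number. OCI-Ly3 cells were treated 4 h with compound and doxycycline, then green and red light read after Chroma-Glo addition.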
In the case of `Cc1nc2c(-c3ccccc3)c(C)nn2c(C)c1CC(=O)O`, the “IkBa stabilization activation” value is reported as inactive: -1.33%.
For `CCOc1ccccc1Nc1nnc(SCc2ccc(C(=O)OC)o2)s1`, the IkBa stabilization activation was inconclusive: 2.03% [signal inhibitor].
For `CCOC(=O)C1=C(C)NC(=O)NC1c1cn(-c2ccccc2)nc1-c1ccc(OCC)cc1` (stereo not given), the IkBa stabilization activation was inconclusive: 13.2% [signal inhibitor].
In the case of `CCCCOc1cccc(C(=O)Nc2cccc(-c3nc4ncccc4o3)c2C)c1`, the IkBa stabilization activation is reported as inconclusive: 17.6% [signal inhibitor].
For `Cc1ccc(NC(=O)C2CCCN(c3ncnc4onc(-c5ccc(F)cc5)c34)C2)c(Cl)c1` (stereo not given), the IkBa stabilization activation was inconclusive: 4.05% [signal inhibitor].
For `CC(C)c1ccc2oc(-c3ccc(NC(=O)c4ncn[nH]4)cc3)nc2c1`, the Potency was inconclusive: 3.98 µM [signal inhibitor, full curve].
In the case of `Cc1ccc(-n2c(Cc3cccn3C)nnc2SCC(=O)Nc2ccc3c(c2)OCO3)cc1`, the IkBa stabilization activation is reported as inconclusive: 0.107% [signal inhibitor].
For `Cc1cccc(N2CCN(C(=O)CN3C(=O)COc4ccc(S(=O)(=O)N5CCCCCC5)cc43)CC2)c1C`, the IkBa stabilization activation was inconclusive: 3.56% [signal inhibitor].
For `C=CCn1c(SCC(=O)Nc2ccc(C(=O)OCC)cc2)nnc1-c1sc(N)nc1C`, the IkBa stabilization activation was inconclusive: 1.75% [signal inhibitor].
With `CCCCn1cc2c(c1-c1ccccc1Br)c(=O)n(C)c(=O)n2C` the IkBa stabilization activation was inconclusive: -0.562% [signal inhibitor].
In the case of `O=c1c(-c2cc(F)cc(F)c2)nc2cnc(N3CCOCC3)nc2n1C[C@H]1CCCO1`, the IkBa stabilization activation is reported as inactive: -0.585% [at 11.4 µM, scaled: untreated 0%, proteasome inhibitor 100%].
With `CCCC(c1nnnn1C1CCCCC1)N1CCN(C2CCCC2)CC1` (stereo not given) the “IkBa stabilization activation” value was inactive: -1.06%.
For `COc1cccc(-n2c(-c3ccc(Cl)cc3)cc3c2CC(C)(C)CC3=O)c1`, the IkBa stabilization activation was inconclusive: 0.0803% [signal inhibitor].
In the case of `COc1ccc(-n2c(=O)c(-c3cn(C)c4ccccc34)nc3cnc(N4CCNCC4)nc32)cc1`, the IkBa stabilization activation is reported as inactive: 0.228% [at 11.4 µM, scaled: untreated 0%, proteasome inhibitor 100%].
In the case of `COc1cc2c(=O)n(Cc3ccccc3Cl)c(=O)n(CC(=O)Nc3ccccc3)c2cc1OC`, the IkBa stabilization activation is reported as inconclusive: 4.15% [signal inhibitor].
In the case of `Cc1cc2cc(CN(Cc3ccc4c(c3)OCO4)C(=O)c3cnccn3)c3nnnn3c2cc1C`, the IkBa stabilization activation is reported as inconclusive: 0.249% [signal inhibitor].
In the case of `CCN(CC)C(=O)CSc1nc(C)cc(-c2cccs2)c1C#N`, the “IkBa stabilization activation” value is reported as inactive: 0.536%.
With `CC(C)C(=O)N1CCN(c2ccccc2N)CC1` the Potency was inconclusive: 15.8 µM [signal inhibitor, partial curve].
In the case of `Cc1ccc(-c2nnc(SCC(=O)NC3CCCC3)nc2-c2ccc(C)cc2)cc1`, the IkBa stabilization activation is reported as inconclusive: 7.09% [signal inhibitor].
In the case of `O=C(Cc1cc(=O)[nH]c(=O)[nH]1)NCC1CCCO1` (stereo not given), the IkBa stabilization activation is reported as inconclusive: -9.13% [signal inhibitor].
For `COC(=O)c1ccccc1NS(=O)(=O)c1ccc2c3c(cccc13)C(=O)N2`, the IkBa stabilization activation was inconclusive: 2.54% [signal inhibitor].
In the case of `CCOC(=O)c1c(C)c(C(=O)Nc2ccc3c(c2)OCO3)c(C)n1C`, the “IkBa stabilization activation” value is reported as inactive: 2.67%.
In the case of `Cc1ccc2ncc3c(-c4ccc(F)cc4)nn(-c4cccc(F)c4)c3c2c1`, the IkBa stabilization activation is reported as inconclusive: -1.3% [signal inhibitor].
With `Cc1ccccc1Nc1sc(C(=O)c2ccccc2)c(N)c1C(=O)NCc1ccc(Cl)cc1` the IkBa stabilization activation was inconclusive: -0.719% [signal inhibitor].
In the case of `COc1cc2c(cc1OC)C(COc1ccc(F)cc1)N(C(=O)c1ccco1)CC2` (stereo not given), the “IkBa stabilization activation” value is reported as inactive: 2.07%.
In the case of `COCCn1c(=O)c(C)nc2cnc(Oc3ccccc3)nc21`, the IkBa stabilization activation is reported as inactive: -1.4% [at 11.4 µM, scaled: untreated 0%, proteasome inhibitor 100%].
In the case of `CN(C)S(=O)(=O)n1cc(/C=C(\NC(=O)c2ccccc2Cl)C(=O)NCCCn2ccnc2)c2ccccc21`, the IkBa stabilization activation is reported as inconclusive: 1.79% [signal inhibitor].
For `O=C(Nc1ccc2c(c1)oc1ccccc12)N1CCOCC1`, the IkBa stabilization activation was inconclusive: 2.19% [signal inhibitor].
With `O=C(NCCc1ccccc1Cl)c1ccc2c(c1)nc1n2CCOC1` the “IkBa stabilization activation” value was inactive: -2.19%.
For `COc1cccc(C(=O)N2c3nc(-c4ccco4)nn3C3(CCCCC3)[C@@H]3CCCC[C@@H]32)c1`, the IkBa stabilization activation was inconclusive: 2.24% [signal inhibitor].
With `CCc1nn(C(C)C(=O)N2CCN(c3cccc(C(F)(F)F)c3)CC2)c(=O)c2cc3occc3n12` (stereo not given) the IkBa stabilization activation was inconclusive: 0.764% [signal inhibitor].
For `COc1ncc2nc(-c3ccc(Cl)cc3)c(=O)n(C[C@H]3CCCO3)c2n1`, the IkBa stabilization activation was inactive: 2.29% [at 11.4 µM, scaled: untreated 0%, proteasome inhibitor 100%].
With `COC(=O)c1ccccc1NC(=O)NCc1ccco1` the “IkBa stabilization activation” value was inactive: 1.97%.
In the case of `COc1cccc(-c2cc(NCc3cccs3)ncn2)c1`, the IkBa stabilization activation is reported as inactive: -1.18% [at 11.4 µM, scaled: untreated 0%, proteasome inhibitor 100%].
For `CCCNC(=O)c1c(C)nn(-c2cccc(C)c2)c1-n1cccc1`, the IkBa stabilization activation was inconclusive: 1.16% [signal inhibitor].
In the case of `CCN(CC)c1nc2c(-c3cccc(Br)c3)nnn2c2ccccc12`, the Potency is reported as inconclusive: 1.26 µM [signal inhibitor, full curve].
In the case of `CCN1CCN(C(c2ccc(OC)cc2)c2c(O)cc(C)n(Cc3ccco3)c2=O)CC1` (stereo not given), the IkBa stabilization activation is reported as inconclusive: 3.81% [signal inhibitor].
For `COc1ccc(CNC(=O)c2ccc(NC(=O)N3CC4CCCN4c4ccccc43)cc2)cc1` (stereo not given), the IkBa stabilization activation was inconclusive: 0.898% [signal inhibitor].
With `COc1cccc(NC(=O)C2CCN(S(=O)(=O)c3cccc4nonc34)CC2)c1` the IkBa stabilization activation was inconclusive: 2.35% [signal inhibitor].
For `COc1ccc2c(C)cc(=O)oc2c1C`, the “IkBa stabilization activation” value was inactive: -4.31%.
For `Cc1ccc(-n2ncc(C(=O)NCCc3ccccc3)c2C2CCN(C(=O)OC(C)(C)C)CC2)c(C)c1`, the IkBa stabilization activation was inconclusive: -2.74% [signal inhibitor].
For `COC(=O)c1ccc(NC(=O)CSc2nc(C)cc(C)c2C(=O)Nc2ccccc2)cc1`, the IkBa stabilization activation was inconclusive: 1.23% [signal inhibitor].
With `O=C1CC(c2cccs2)Cc2nc(NCC3CCCO3)ncc21` (stereo not given) the “IkBa stabilization activation” value was inactive: -0.507%.
In the case of `CCOc1ccc(/C=C/C(=O)Nc2sc3c(c2C(=O)OC)C(C(=O)OC)CC3)cc1` (stereo not given), the Potency is reported as inconclusive: 12.6 µM [rising, partial curve].
In the case of `COc1cc(NS(=O)(=O)c2cnc(N)nc2)cc(OC)c1`, the “IkBa stabilization activation” value is reported as inactive: 0.19%.
With `COc1cc(C(=O)OCc2cc(=O)n3nc(C4CCCCC4)sc3n2)cc(OC)c1OC` the “IkBa stabilization activation” value was inactive: 0.14%.
For `CCOC(=O)c1cc(C)n(CC2CCC(C(=O)Nc3ccc(C(C)=O)cc3)CC2)c1C` (stereo not given), the IkBa stabilization activation was inconclusive: -1.93% [signal inhibitor].
With `COc1ccc(N2CCN(C(=O)c3cccc(-n4c(C)nc5cccnc54)c3)CC2)cc1` the IkBa stabilization activation was inconclusive: 3.15% [signal inhibitor].
With `COc1cc2cc(CNc3ccccc3)c(=O)n(CC(=O)Nc3ccccc3)c2cc1OC` the IkBa stabilization activation was inconclusive: 0.415% [signal inhibitor].
In the case of `Cc1c(C(=O)NCc2ccccc2)oc2ccc(S(=O)(=O)N3CCC4(CC3)OCCO4)cc12`, the IkBa stabilization activation is reported as inconclusive: 2.29% [signal inhibitor].
In the case of `CCCNS(=O)(=O)c1ccc2nc(NC(=O)c3ccc(F)cc3)sc2c1`, the IkBa stabilization activation is reported as inconclusive: -0.323% [signal inhibitor].
With `O=C(NCCC1=CCCCC1)c1ccc2c(c1)N(Cc1ccccc1F)C(=O)c1ccccc1S2=O` (stereo not given) the “IkBa stabilization activation” value was inactive: 1.95%.
In the case of `COc1cccc(-c2cn3c(n2)sc2cc(C(=O)NCCCc4ccccc4)ccc23)c1`, the “IkBa stabilization activation” value is reported as inactive: 1.71%.
For `CSc1ccc(CNC(=O)C2CCCN(S(=O)(=O)N(C)c3ccc(F)cc3)C2)cc1` (stereo not given), the IkBa stabilization activation was inconclusive: 2% [signal inhibitor].
With `CCc1ccc2c(c1)c(=O)c(S(=O)(=O)c1ccc(Cl)cc1)cn2CC` the IkBa stabilization activation was inconclusive: -0.0746% [signal inhibitor].
In the case of `O=C(CC1(O)C(=O)N(CCc2ccccc2)c2ccc(Br)cc21)c1ccc(F)cc1` (stereo not given), the IkBa stabilization activation is reported as inconclusive: -10.3% [signal inhibitor].
For `O=C1c2ccccc2C(Nc2ccc(F)c(Cl)c2)N1c1ccccn1` (stereo not given), the IkBa stabilization activation was inconclusive: 10.4% [signal inhibitor].
For `Nc1c(C(=O)NCc2ccc(Cl)cc2Cl)nnn1Cc1ccc(Br)cc1`, the Potency was inconclusive: 15.8 µM [signal inhibitor].
In the case of `COC(=O)c1ccc(NC(=O)CN2CCN(c3cccc(Cl)c3)CC2)cc1`, the IkBa stabilization activation is reported as inconclusive: 16.3% [signal inhibitor].
For `CCn1c(SCCOc2ccc(Cl)cc2)nnc1-c1cccs1`, the IkBa stabilization activation was inconclusive: 3.24% [signal inhibitor].
In the case of `O=C1c2ccccc2C(=O)N1CCSc1nnc(-c2ccco2)n1Cc1ccccc1`, the IkBa stabilization activation is reported as inconclusive: 7.06% [signal inhibitor].
With `Cc1ccc(S(=O)(=O)NCC2CCC(C(=O)NCc3ccc(F)cc3)CC2)cc1` (stereo not given) the IkBa stabilization activation was inconclusive: -1.26% [signal inhibitor].
For `CCn1c(SCC(=O)N2CCCc3ccccc32)nnc1-c1c[nH]c2ccccc12`, the IkBa stabilization activation was inconclusive: 7.12% [signal inhibitor].
In the case of `CC(C)=CC(=O)Nc1ccc2c(c1)OCO2`, the “IkBa stabilization activation” value is reported as inactive: 0.749%.
With `CC[C@@H]1OC(=O)[C@H](C)[C@H](O[C@@H]2C[C@](C)(OC)[C@H](O)[C@H](C)O2)[C@H](C)[C@H](O[C@@H]2O[C@@H](C)C[C@@H](N(C)C)[C@@H]2O)[C@](C)(O)C[C@H](C)[C@@H]2N[C@H](COCCOC)O[C@H]([C@@H]2C)[C@]1(C)O` the “IkBa stabilization activation” value was inactive: -0.763% [at 25.6 µM, scaled: untreated 0%, proteasome inhibitor 100%].
Potency is the fitted concentration of half-maximal effect.
